Experimental data from the RNAGym collection of RNA variant scans (doi:10.1101/gad.245936.114).
Variants at the background level are over-represented here.

B1: tRNA (parent)
chain: CUCUCGGUAGCCAAGUUGGUUUAAGGCGCAAGACUUUAAUUUAUCACUACGAAAUCUUGAGAUCGGGCGUUCGACUCGCCCCCGGGAGAUUUUUUCCUCGAGCAA

Variants of: B1
Assay: nonsense suppression (GFP-seq) (ratio to wild type); higher = more function; SUP4oc tRNA, yeast GFP reporter sort-seq
Outline: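 Nonsense suppression (GFPSEQ) is the median GFP/RFP ratio of each sorting bin, weighted by the variant's estimated share of cells in that bin and expressed relative to the unmutated parent tRNA. Yeast strains carried genome-integrated variants of an ochre-suppressor tRNA from a library with ~3% random mutations, plus a galactose-driven GFP ochre reporter and RFP, and were grown in raffinose/galactose medium containing 80 mg/L adenine. Cells were sorted into GFP/RFP bins, each bin was Illumina-sequenced (phred ≥30), and variants were kept only with ≥100 reads and ≥30 cells.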

Row | Variant | nonsense suppression
1 | C5G A24G G26A U63G G67A | ≤ 0.026
2 | C5A U57G | ≤ 0.026
3 | C5A U8G A14U G86A A89G | ≤ 0.026
4 | C5U C12U C81U | ≤ 0.026
5 | C5G G6U | ≤ 0.026
6 | C5G G78U | 0.0283
7 | G6A G26A G59U C72U | ≤ 0.026
8 | C5U G19C | ≤ 0.026
9 | G6A G66C | ≤ 0.026
10 | C5U G26A C34A | ≤ 0.026
11 | C5G C27U A31G U35G C68G | ≤ 0.026
12 | C5G U8C A9U U17C U57G C79U | ≤ 0.026
13 | C5U U21A C34U | ≤ 0.026
14 | C5U U22A G61C | ≤ 0.026
15 | C5U A24U U35A | ≤ 0.026
16 | C5U C12U U21A G66C | ≤ 0.026
17 | C5G G18A | ≤ 0.026
18 | C5G C64U U71C | ≤ 0.026
19 | C5U U8G | ≤ 0.026
20 | C5G G6C U70C | ≤ 0.026
21 | C5G A13C A14U A62C | ≤ 0.026
22 | C5G A33C C77G A87G | ≤ 0.026
23 | C5G U21C A54G U76C | ≤ 0.026
24 | C5U C11U G78A | ≤ 0.026

Row | Variant | nonsense suppression
25 | C5U A13C U76A | ≤ 0.026
26 | C5G U16C | ≤ 0.026
27 | C5A G32A C34A | ≤ 0.026
28 | C5U A9G C11A U22A A23C G67A U71A G78U | ≤ 0.026
29 | G6A C75A | ≤ 0.026
30 | C5U A14U A24C | ≤ 0.026
31 | G6A A14G A62U | ≤ 0.026
32 | C5G C29A G65A U71A C72A | ≤ 0.026
33 | C5G A14G U57G C64G | ≤ 0.026
34 | C5U A23U U57G G73U G86U | ≤ 0.026
35 | C5U C12G G59C | ≤ 0.026
36 | C5U A62G | ≤ 0.026
37 | C5A G28U A62C A89C | ≤ 0.026
38 | G6A C11G G18C U57G G65U | ≤ 0.026
39 | C5A G25A G73C | ≤ 0.026
40 | G6A A62U | ≤ 0.026
41 | G6A G7A A30U A54C U58G G59A | ≤ 0.026
42 | C5G G67C U70C U71A | ≤ 0.026
43 | C5U U70C | ≤ 0.026
44 | C5U G85A | 0.08
45 | C5U A31G G66A | ≤ 0.026
46 | C5U A30C G84C | ≤ 0.026
47 | C5U G15C U16A A23G U58G | ≤ 0.026
48 | C5U G88U | ≤ 0.026

Row | Variant | nonsense suppression
49 | C5U A60C | 0.0867
50 | C5U C27G G32U C83G | ≤ 0.026
51 | C5A G69C G84U | ≤ 0.026
52 | C5A U71A | ≤ 0.026
53 | G6A A14G G25U G86A | ≤ 0.026
54 | G6A C11A A33G | ≤ 0.026
55 | C5G A33G G65A G66C | ≤ 0.026
56 | C5U C68G A87U | ≤ 0.026
57 | C5U G19U A30U U55C | ≤ 0.026
58 | C5G U16A U22C U57C C72U A87C | ≤ 0.026
59 | C5G U8C G88A | ≤ 0.026
60 | C5G G78U C82A | ≤ 0.026
61 | C5U G10C A23C A30U G78C | ≤ 0.026
62 | C5U A24C U55C U57C | ≤ 0.026
63 | C5U U16A C64A G67C G88A | ≤ 0.026
64 | C5U A13C A31U G61U G65C | ≤ 0.026
65 | C5U U8A C11A A33G C83U | ≤ 0.026
66 | G6A C80U | ≤ 0.026
67 | C5G A14G G15A | ≤ 0.026
68 | C5U G73A | ≤ 0.026
69 | C5A G78C C81A | ≤ 0.026
70 | C5U A14G U57A G78A | ≤ 0.026
71 | C5U G19A U57C G61U | ≤ 0.026
72 | C5G A30C | ≤ 0.026

Row | Variant | nonsense suppression
73 | G6A A9U G15U G18A C77A | ≤ 0.026
74 | C5U G7U C77U | ≤ 0.026
75 | C5A U55C G59U A60G C82U | ≤ 0.026
76 | C5U U8C G10A G15U A33G | ≤ 0.026
77 | C5G U8G C27G U76C | ≤ 0.026
78 | C5G C12G U55G C56U C77G G84U | ≤ 0.026
79 | C5A G59A C64G | ≤ 0.026
80 | C5G U16G G69U | ≤ 0.026
81 | C5G A30G U35G U63C C83A | ≤ 0.026
82 | C5A U70C | ≤ 0.026
83 | C5U G84A | 1.15
84 | G6A A31G | ≤ 0.026
85 | C5U G28C A30U C34A C72A | ≤ 0.026
86 | C5G C11G G61C G67C G78C | ≤ 0.026
87 | C5G C56A G61U G88A | ≤ 0.026
88 | C5G A62U | ≤ 0.026
89 | C5G A23U A30U G32U | ≤ 0.026
90 | C5G G69A | ≤ 0.026
91 | C5G G18C A60G A62U G69C | ≤ 0.026
92 | C5G U70C | ≤ 0.026
93 | C5G G15U A30C | ≤ 0.026
94 | G6A G10U G15A G25U G59C | ≤ 0.026
95 | C5U A13G G28A G66C | ≤ 0.026
96 | C5A G19A U22A G88A | ≤ 0.026

Row | Variant | nonsense suppression
97 | C5A G78U | 0.0303
98 | C5A G78A | 0.0335
99 | G6A A23G U58G G73C G84C | ≤ 0.026
100 | C5G U55C U70C | ≤ 0.026
101 | G6A A30U G84C G88U | ≤ 0.026
102 | C5U G65A C82A | ≤ 0.026
103 | C5G A31C | ≤ 0.026
104 | G6A A33G C83A A89C | ≤ 0.026
105 | C5G G15A A54G C82U | ≤ 0.026
106 | C5G C11A G28U | ≤ 0.026
107 | C5U U20C U21C G61A | ≤ 0.026
108 | C5U C27A | ≤ 0.026
109 | C5G A24G | ≤ 0.026
110 | C5G A60C A87C | ≤ 0.026
111 | C5U A14G U55G | ≤ 0.026
112 | G6A C27G A54C U57C | ≤ 0.026
113 | C5G G59A A62C | ≤ 0.026
114 | C5G G15U A31C | ≤ 0.026
115 | C5U C11G C12G G15U U71A | ≤ 0.026
116 | C5A G26C U35C | ≤ 0.026
117 | C5U U58A U63G | ≤ 0.026
118 | G6A G26U C83A | ≤ 0.026
119 | C5G G25U A33G G61U G69U | ≤ 0.026
120 | C5G C29A G65A U71A C72A G86U | ≤ 0.026

Row | Variant | nonsense suppression
121 | G6A A9C C56G U76A C82G C83A | ≤ 0.026
122 | C5G A13C G25C U57C | ≤ 0.026
123 | G6A A9U G65C | ≤ 0.026
124 | G6A G15A G61A | ≤ 0.026
125 | C5G C11U C27A A31U G86U | ≤ 0.026
126 | C5G G7A U17G C72G | ≤ 0.026
127 | C5G A23U G26U U35G | ≤ 0.026
128 | C5A G15U G61A C79A | ≤ 0.026
129 | C5U A33G G78C C81U | ≤ 0.026
130 | C5U G10C | ≤ 0.026
131 | C5G C29A A30U G69U U70G | ≤ 0.026
132 | C5G G6C A9C A89C | ≤ 0.026
133 | C5U U22A A24G U58G | ≤ 0.026
134 | G6A G18A | ≤ 0.026
135 | C5U C56G G69U G86U | ≤ 0.026
136 | C5A G61C | 0.0329
137 | C5G A23C | ≤ 0.026
138 | C5U G18A G32A | ≤ 0.026
139 | C5U A23G G66A C77G | ≤ 0.026
140 | C5U C77A C80A | ≤ 0.026
141 | C5U A30U G88A | ≤ 0.026
142 | C5G U8C A14C C72U | ≤ 0.026
143 | C5U A9C A13G U57G G59A U71A U76A | ≤ 0.026
144 | C5U G66C U70G | ≤ 0.026

Row | Variant | nonsense suppression
145 | C5A G19C A62G | ≤ 0.026
146 | C5A U58A | ≤ 0.026
147 | C5G U22C | ≤ 0.026
148 | C5G U22G | ≤ 0.026
149 | C5G A54U U63G C72G A87U | ≤ 0.026
150 | C5U U20C A23C U63C A89U | ≤ 0.026
151 | C5A U21G C56U C82A | ≤ 0.026
152 | G6A C64G C79A | ≤ 0.026
153 | C5U C34U | ≤ 0.026
154 | C5U A9C G26U | ≤ 0.026
155 | C5G C75U | ≤ 0.026
156 | C5A G15U G88U | ≤ 0.026
157 | C5G G18C G26U A31C C56A U63C | ≤ 0.026
158 | C5G A33U | ≤ 0.026
159 | C5G U8G G26C | ≤ 0.026
160 | C5U G15A U21A C34G G61U | ≤ 0.026
161 | C5G A13G A14U A33G | ≤ 0.026
162 | C5A U55C A89G | ≤ 0.026
163 | C5G G66C | ≤ 0.026
164 | C5U C11U G66A | ≤ 0.026
165 | C5U G15U U55G U70C | ≤ 0.026
166 | G6A A31C A60C C72A G86A | ≤ 0.026
167 | C5G A9U C11A | ≤ 0.026
